# Data as given in the supplement of paper PMC3334620.
# In all, about 33,000 sequences were measured (“E-score (-0.5 to 0.5)”: median about -0.041, highest 2% from about 0.37 on). This is one part of the list.
# Target: T1, Ecm22 (UniProt Q05958)
# T1 sequence: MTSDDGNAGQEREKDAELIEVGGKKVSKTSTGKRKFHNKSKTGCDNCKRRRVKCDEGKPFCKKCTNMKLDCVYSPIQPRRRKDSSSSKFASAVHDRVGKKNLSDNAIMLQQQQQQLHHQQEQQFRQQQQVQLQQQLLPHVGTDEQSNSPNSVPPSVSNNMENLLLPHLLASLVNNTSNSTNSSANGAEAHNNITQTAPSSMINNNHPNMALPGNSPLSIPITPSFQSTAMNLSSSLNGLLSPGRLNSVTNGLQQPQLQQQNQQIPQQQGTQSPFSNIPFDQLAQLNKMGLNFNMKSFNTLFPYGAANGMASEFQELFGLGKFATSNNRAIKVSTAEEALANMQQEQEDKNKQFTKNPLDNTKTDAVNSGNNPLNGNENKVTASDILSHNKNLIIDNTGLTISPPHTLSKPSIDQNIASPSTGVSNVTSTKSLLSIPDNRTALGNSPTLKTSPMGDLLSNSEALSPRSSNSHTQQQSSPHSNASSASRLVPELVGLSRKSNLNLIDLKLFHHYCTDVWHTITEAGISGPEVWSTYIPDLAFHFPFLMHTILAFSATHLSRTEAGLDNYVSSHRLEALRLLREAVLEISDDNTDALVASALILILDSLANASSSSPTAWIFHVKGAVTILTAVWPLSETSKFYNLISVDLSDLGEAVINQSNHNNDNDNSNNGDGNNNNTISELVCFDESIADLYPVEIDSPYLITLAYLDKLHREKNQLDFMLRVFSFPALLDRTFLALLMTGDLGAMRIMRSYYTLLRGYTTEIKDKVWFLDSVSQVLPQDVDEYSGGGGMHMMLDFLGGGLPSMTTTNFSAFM
# Assay: PBM E-score (8-mer binding enrichment) (E-score (-0.5 to 0.5)); higher = stronger / more preferred TF binding; most listed sequences are background and not binding sites
# Conditions: protein concentration: 200 nM; construct: GST-full length
# Procedure, shortened: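 Detection of bound protein used fluorescent anti-GST, with scans normalised by masliner. The proteins were GST-tagged yeast transcription factors applied at about 100-200 nM to universal all-10-mer Agilent arrays made double-stranded by primer extension. Each ungapped eight-base word, pooled with its reverse complement, was scored with an E-score from the Universal PBM Analysis Suite.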
row,Sequence,PBM E-score
1,ATTTACGA,0.453
2,GAGTGATC,0.0822
3,CACGGAAG,-0.202
4,GAGCGCGA,0.214
5,GCTGCTCC,-0.176
6,AACGTAGC,0.18
7,ATGACTTA,0.0397
8,CGCCGTCA,-0.184
9,ACCCTTCT,-0.107
10,TCCGCTAA,0.00479
11,CGCTGTAC,0.155
12,ACATGGGC,-0.263
13,TCGCTGCA,0.0954
14,CTGGATTA,-0.0757
15,TTACACAA,-0.0124
16,CTGTAGAC,-0.238
17,ATACTCGA,0.0999
18,CGCGCGCG,0.181
19,CGGTGTAG,0.0391
20,ATAGTACA,0.151
21,CCATTCTC,-0.163
22,AGCTGCGC,-0.0377

row,Sequence,PBM E-score
1,TAAATCTA,-0.115
2,AGGGAAGG,-0.354
3,ACTTGCGC,0.098
4,ACCACTTC,-0.0644
5,AAGCATCA,-0.234
6,AACGCAAT,0.0229
7,TCTCAAGA,-0.347
8,GTCTTGGA,-0.291
9,CGTATGGC,0.4
10,AATAGAGC,0.124
11,GGCCCGGA,-0.142
12,AAGAGTAC,0.0468
13,CCGCGCCC,-0.233
14,GCTCCCGA,-0.0232
15,CGAGGTCA,0.267
16,CAAAATCA,-0.0208
17,ACGCAAAC,0.21
18,ACCCCAGC,-0.0441
19,ATTACGAA,0.349
20,CCCGACAG,-0.221
21,CGGCATAG,0.0278
22,CCCATCAG,-0.211

row,Sequence,PBM E-score
1,TATTTTAA,0.0538
2,AGGCCGGC,-0.232
3,CCCGTTAG,-0.235
4,ATATGAAT,-0.0784
5,ATGAACTA,0.0245
6,AGGTGCTA,-0.0525
7,GATGGTGC,0.0158
8,ATACGTGA,0.171
9,ATGTCTAG,-0.0927
10,CCTCGGTA,0.152
11,CCCAGCCA,0.0727
12,ACGTCTTC,-0.126
13,CGCGTTAG,-0.0122
14,ACCTATGC,-0.0281
15,CAGAAGGG,-0.119
16,CCGCCAGA,-0.0907
17,ACGCCACG,-0.0847
18,GACACACA,0.0148
19,ATCCGCCC,-0.0715
20,CCCATGCC,-0.293
21,CACGCAAC,0.122
22,AACACCTA,-0.128

row,Sequence,PBM E-score
1,ACGGTCAC,0.0169
2,CAGCAGCC,-0.0927
3,CGTACCAC,0.446
4,GCTACCCC,-0.29
5,AGTGACCA,-0.0296
6,ATATATTA,0.182
7,GTGAACAC,-0.176
8,GGCGCGAA,-0.135
9,AGTAAGTG,-0.0907
10,TCTTAGCA,-0.0542
11,CGCGCGAC,0.213
12,ACACGCAC,-0.0814
13,ACACTGTG,-0.1
14,TCCGAACA,0.0654
15,AAAGGGGA,-0.26
16,ACACCTAT,0.00662
17,TGTTAGAA,-0.191
18,GGTTTCAC,-0.118
19,GTAACTTA,0.219
20,GTATAAAA,0.335
